Data as given in PMC6380292.
No constants are given. Whether binding was seen depends on the method and setting. Some binding calls cover weakened binding; strength is not graded here. Tags and fused reporters may be left off the sequences shown.

Protein sequences, listed by entry. Tags and fused reporters are not part of them.
UniProt P32598: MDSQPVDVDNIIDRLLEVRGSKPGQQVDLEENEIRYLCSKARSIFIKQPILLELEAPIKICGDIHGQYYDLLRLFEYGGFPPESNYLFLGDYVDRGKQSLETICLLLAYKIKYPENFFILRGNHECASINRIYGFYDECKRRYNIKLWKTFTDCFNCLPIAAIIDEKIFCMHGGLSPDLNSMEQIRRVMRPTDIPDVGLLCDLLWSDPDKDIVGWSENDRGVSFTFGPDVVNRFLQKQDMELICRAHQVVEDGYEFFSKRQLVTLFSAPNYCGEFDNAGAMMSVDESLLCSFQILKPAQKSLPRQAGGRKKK

Experiments:
[1] = molecular target: Glc7, the yeast PP1c protein, fused to the Gal4-activating domain (Saccharomyces cerevisiae) (UniProt P32598); experiment: two-hybrid; LexA DNA binding domain fusion (pBTM116) and Gal4-activating domain fusion (pACT2) in yeast L40∆G, LexAop-HIS3 reporter, -L-W-H plates with 40 mM 3AT
[2] = molecular target: T1, MBP-hSnu114-ΔN (human Snu114, 130-972 aa) (human) (UniProt Q15029); experiment: pull-down; MBP-hSnu114-ΔN (15 pmol, 45 nM) incubated with 33 μM GTPγS or GDP or no nucleotide, then 15 pmol GST-Cwc21 or GST-PP1; amylose beads; anti-GST HRP blot; both purified
T1 sequence: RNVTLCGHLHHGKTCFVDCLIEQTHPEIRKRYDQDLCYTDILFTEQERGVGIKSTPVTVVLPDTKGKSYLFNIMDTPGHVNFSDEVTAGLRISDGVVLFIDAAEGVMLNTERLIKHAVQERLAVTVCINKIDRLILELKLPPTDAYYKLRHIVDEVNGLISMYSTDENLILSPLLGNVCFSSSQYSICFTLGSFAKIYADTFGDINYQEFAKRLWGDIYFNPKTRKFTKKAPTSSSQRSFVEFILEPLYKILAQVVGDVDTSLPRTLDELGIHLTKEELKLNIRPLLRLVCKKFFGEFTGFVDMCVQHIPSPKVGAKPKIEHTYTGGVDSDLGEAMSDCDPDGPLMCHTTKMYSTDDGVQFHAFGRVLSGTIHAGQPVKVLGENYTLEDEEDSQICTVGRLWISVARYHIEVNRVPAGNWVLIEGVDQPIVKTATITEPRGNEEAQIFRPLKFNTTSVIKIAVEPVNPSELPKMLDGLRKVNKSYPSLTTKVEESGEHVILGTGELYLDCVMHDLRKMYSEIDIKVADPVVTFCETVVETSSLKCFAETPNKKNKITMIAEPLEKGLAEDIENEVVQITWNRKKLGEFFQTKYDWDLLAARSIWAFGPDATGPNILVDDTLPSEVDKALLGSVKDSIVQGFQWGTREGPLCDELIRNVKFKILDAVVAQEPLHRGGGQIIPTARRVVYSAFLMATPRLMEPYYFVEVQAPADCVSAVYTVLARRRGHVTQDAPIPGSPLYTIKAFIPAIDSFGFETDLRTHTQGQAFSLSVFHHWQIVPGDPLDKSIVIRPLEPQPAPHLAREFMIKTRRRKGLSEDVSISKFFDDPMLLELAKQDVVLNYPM

B1: Full-length Snu114 fused to LexA DNA binding domain (protein, UniProt P36048 1-1008)
chain: MEGDDLFDEFGNLIGVDPFDSDEEESVLDEQEQYQTNTFEGSGNNNEIESRQLTSLGSKKELGISLEHPYGKEVEVLMETKNTQSPQTPLVEPVTERTKLQEHTIFTQLKKNIPKTRYNRDYMLSMANIPERIINVGVIGPLHSGKTSLMDLLVIDSHKRIPDMSKNVELGWKPLRYLDNLKQEIDRGLSIKLNGSTLLCTDLESKSRMINFLDAPGHVNFMDETAVALAASDLVLIVIDVVEGVTFVVEQLIKQSIKNNVAMCFVINKLDRLILDLKLPPMDAYLKLNHIIANINSFTKGNVFSPIDNNIIFASTKLGFTFTIKEFVSYYYAHSIPSSKIDDFTTRLWGSVYYHKGNFRTKPFENVEKYPTFVEFILIPLYKIFSYALSMEKDKLKNLLRSNFRVNLSQEALQYDPQPFLKHVLQLIFRQQTGLVDAITRCYQPFELFDNKTAHLSIPGKSTPEGTLWAHVLKTVDYGGAEWSLVRIYSGLLKRGDTVRILDTSQSESRQKRQLHDISKTETSNEDEDEDDETPSCEVEEIGLLGGRYVYPVHEAHKGQIVLIKGISSAYIKSATLYSVKSKEDMKQLKFFKPLDYITEAVFKIVLQPLLPRELPKLLDALNKISKYYPGVIIKVEESGEHVILGNGELYMDCLLYDLRASYAKIEIKISDPLTVFSESCSNESFASIPVSNSISRLGEENLPGLSISVAAEPMDSKMIQDLSRNTLGKGQNCLDIDGIMDNPRKLSKILRTEYGWDSLASRNVWSFYNGNVLINDTLPDEISPELLSKYKEQIIQGFYWAVKEGPLAEEPIYGVQYKLLSISVPSDVNIDVMKSQIIPLMKKACYVGLLTAIPILLEPIYEVDITVHAPLLPIVEELMKKRRGSRIYKTIKVAGTPLLEVRGQVPVIESAGFETDLRLSTNGLGMCQLYFWHKIWRKVPGDVLDKDAFIPKLKPAPINSLSRDFVMKTRRRKGISTGGFMSNDGPTLEKYISAELYAQLRENGLVP
binding [1]: binds

B2: GST-Cwc21 (protein, UniProt Q03375 1-135)
chain: MSYNGIGLKSAKGSSTSGHVQRSLASNNRRRPQGSQQQRQQRQNAIKKASHDKASRPLAVQKQIETHMEKREIEVQVSELRDRLEEEETLSEEQIDKKCEALRAKLTNEWQEQQRMSSLYTPRKARLTEEQHRHE
binding [2]: binds
